About 800 (1.6%) of roughly 50,000 compounds showed an effect of 50% or more. Some of the results follow.

For this assay, the target named is Bcl-2-like protein 10 (Homo sapiens) (UniProt Q9HD36). As to the kind of experiment: TR3 peptide-Bcl-B binding displacers, biochemical primary FP assay, phenotype converters (AID 1240).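 Further: 0% = Bcl-B with tracer peptide and DMSO and 100% = tracer peptide lacking Bcl-B.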 Conditions: GST-Bcl-B / FITC-TR3 peptide fluorescence polarization; stronger effect = higher value; compound at 3.75 mg/L.
Chain of UniProt Q9HD36 (Q9HD36 whole entry, looked up): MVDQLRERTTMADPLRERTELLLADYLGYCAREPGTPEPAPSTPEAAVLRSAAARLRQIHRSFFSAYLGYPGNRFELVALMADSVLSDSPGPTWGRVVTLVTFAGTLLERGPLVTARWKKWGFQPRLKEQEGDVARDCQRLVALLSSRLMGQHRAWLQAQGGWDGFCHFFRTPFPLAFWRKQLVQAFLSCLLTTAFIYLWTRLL
For `O=C(CSc1nnnn1-c1ccccc1)Nc1nccs1`, the displacement amounted to 8.2%. With `CCOC(=O)c1c(-c2ccc(F)cc2)csc1NC(=O)C1CC=CCC1C(=O)O` (stereo not drawn), the displacement was -2.7%. On to `COc1ccc(CCNC(=O)/C=C/c2ccc(Cl)cc2Cl)cc1OC`, for which the displacement was 5.2%. Turning to `COc1ccc(C2CC(C(F)(F)F)n3ncc(C(=O)Nc4c(C)n(C)n(-c5ccccc5)c4=O)c3N2)cc1` (stereo not drawn), the displacement is -4.1%.

On to `CCCCNC(=O)/C(=C/c1ccc(Cl)cc1)NC(=O)c1ccc(OC)cc1`, for which the displacement stood at 6.4%. As for `COCCOC(=O)c1c(C)oc2ccc(NS(=O)(=O)c3cc(Cl)ccc3Cl)cc12`, the displacement is 10%. As to `Cc1ccc(C(=O)Nc2ccccc2C(=O)N2CCC(Cc3ccccc3)CC2)cc1`, the displacement was -0.9%. As for `O=C(Nc1cc(C(F)(F)F)ccc1Cl)c1ccccc1I`, the displacement turned out to be 6.3%. As for `O=C(Nc1nnc(COc2ccc(F)cc2)s1)c1ccc(F)cc1`, the figure is -14.8%.

For the compound `COc1ccc(NS(=O)(=O)c2ccccc2)cc1OC`, the displacement was -9.2%. For `O=C(O)CCCCCN1C(=O)C(O)=C(C(=O)/C=C/c2ccccc2)C1c1cccc([N+](=O)[O-])c1` (stereo not drawn), the displacement worked out at 96.1%. Take `O=C1N/C(=N/N=C/c2ccc(O)cc2)SC1Cc1ccc(Cl)cc1` (stereo not drawn): the displacement was -7.7%.

Take `CC1=C(C(=O)Nc2ccc(Br)cc2)C(c2ccccc2Br)NC(=S)N1` (stereo not drawn): the displacement was -7%. On to `Cc1ccc(S(=O)(=O)CCC(=O)c2ccc(O)cc2O)cc1`, for which the displacement came out at 3.1%. Regarding `COC(=O)C1=C(C(=O)OC)SC(=C2C(=S)C(C)(C)N(C(=O)c3cccc(F)c3)c3c(C)cccc32)S1`, the displacement is -6.7%. Take `CCc1ccc2c(c1)C(O)(CC(=O)c1ccc(Cl)cc1)C(=O)N2` (stereo not drawn): the displacement was -9.9%.

Consider `COc1ccc(CC(=O)Nc2sc3c(c2C(=O)Nc2ccccc2Cl)CCCC3)cc1`, for which the displacement was -9.7%. Take `COc1ccc(-n2nc3cc(C)c(NC(=O)COc4ccc(Br)cc4)cc3n2)cc1`: the displacement was 4.5%. The figure for `O=C(/C=C/c1c(Cl)cccc1Cl)c1ccc2c(c1)OCCO2` is 18.2%; for `CC(C)c1ccc(NC(=O)CN(Cc2ccccc2)S(=O)(=O)c2ccccc2)cc1` it is 3%. Turning to `O=C(Nc1ccccc1C(=O)O)c1ccc2c(c1)C(=O)N(c1ccc(O)cc1)C2=O`, the displacement was 15.5%. On to `Cc1ccc(-n2nc(-c3ccccc3)c3c2C(=O)C=CC3=O)cc1`, for which the displacement is 12.4%. For the compound `O=[N+]([O-])c1ccccc1S(=O)(=O)NC12CC3CC(CC(C3)C1)C2`, the displacement is -0.7%. For `O=c1/c(=C/c2cc(Br)ccc2O)sc2nc3ccccc3n12`, the displacement is 10.3%. Take `FC(F)(F)c1ccc2nnc(-c3cccc(Cl)c3Cl)n2c1`: the displacement was -11%. Take `CC(Oc1cccc(Cl)c1)C(=O)Nc1nncs1` (stereo not drawn): the displacement worked out at 4.1%. The figure for `CCOC(=O)c1ccc(N2C(=O)CSC23C(=O)Nc2ccccc23)cc1` (stereo not drawn) is 10.6%; for `CC(C)(CO)NC(=O)NC12CC3CC(CC(C3)C1)C2` it is -4.9%; for `Cc1ccc(-c2[nH]ncc2/C=N/NC(=O)c2ccc(Br)cc2)cc1` it is 4.6%. The figure for `CCCC(=O)n1nc(C)c2c1CC(C)(C)CC2=O` is 3.7%; for `O=c1cc(-c2c(F)c(F)c(F)c(F)c2F)oc2c(F)c(F)c(F)c(F)c12` it is -8.7%. The figure for `COc1ccc(C(=O)CC(Nc2ccc(C)c(Cl)c2)c2ccccc2)cc1` (stereo not drawn) is -14.9%. Regarding `COc1ccc(S(=O)(=O)N(CC(=O)Nc2ccc3c(c2)OCO3)c2ccc(C)cc2)cc1OC`, the displacement came out at 4.9%.

Consider `O=C1NC(=O)N(c2ccc(Cl)cc2)C(=O)/C1=C/c1ccc(Br)s1`, for which the displacement is -6.7%.

For `Cc1ccc(C(=O)Oc2cccc(C3C4=C(CC(C)(C)CC4=O)NC4=C3C(=O)c3ccccc34)c2)cc1` (stereo not drawn), the displacement came to 5.6%. The figure for `COc1ccc(NC(=O)C(=O)NCCc2ccc(OC)c(OC)c2)cc1Cl` is 8.9%; for `COc1ccc(C2CC(=O)C3=C(C2)Nc2ccccc2NC3c2ccc(OC)c(Br)c2)cc1` (stereo not drawn) it is -3.9%; for `COc1ccc(Nc2cc(C)nc3c(C)ccc([N+](=O)[O-])c23)cc1` it is 3%. Turning to `CCC(C)NC(=O)COc1ccc2ccccc2c1` (stereo not drawn), the displacement is 17.7%. On to `O=C(CN(c1cccc(Br)c1)S(=O)(=O)c1ccccc1)N1CCCC1`, for which the displacement was 3.5%. Take `O=C(O)c1ccc(NC(=O)c2ccc3c(c2)C(=O)N(c2ccc(C(=O)O)cc2)C3=O)cc1`: the displacement stood at 0.7%. As to `CCOc1ccc(NC(=S)NC(=O)c2ccc(OC)cc2)c([N+](=O)[O-])c1`, the displacement was determined as 8%.

Regarding `COc1ccc(NC(=O)c2ccc(S(=O)(=O)N3CCOCC3)cc2)c2ccccc12`, the displacement was -8.9%. Regarding `CCOC(=O)Cc1nn(CC)c(=O)c2ccccc12`, the displacement is -0.4%. With `CCOc1ccc(C(=O)Nc2cc(-c3nc4ccccc4[nH]3)ccc2C)cc1[N+](=O)[O-]`, the displacement amounted to 11.8%. For the compound `CSc1nnc2n(-c3ccc(C)cc3)c(=O)c3c4c(sc3n12)CCCC4`, the displacement came out at 49.7%. On to `C(=C\c1ccccc1)/C=N/Nc1nnc2c(n1)[nH]c1ccccc12`, for which the displacement was 1.2%.

Turning to `CCOC(=O)C1CCN(C(=O)c2ccc(C#CC(C)(C)O)cc2)CC1`, the displacement is -1%. With `COc1ccccc1/C=C/c1nc(O)c([N+](=O)[O-])c(=O)[nH]1`, the displacement turned out to be 4.5%.

Take `O=C(CC(=O)NCc1ccccn1)NCc1ccccn1`: the displacement was -24.6%.

Consider `Cc1oc2ccc(OC(=O)c3cccs3)cc2c1C(=O)OC(C)C`, for which the displacement came out at 9.9%.

For `CC(=C/c1ccccc1)/C=N/NC(=O)c1ccccn1`, the displacement is -1.4%. `CCOC(=O)NCc1ccc(N(C)C)cc1`: the displacement is 8%. Turning to `O=C(Nc1cc([N+](=O)[O-])ccc1F)c1cccs1`, the displacement was determined as 6.5%. With `COc1ccc(OC)c(NC(=O)C2COc3ccccc3O2)c1` (stereo not drawn), the displacement was determined as 19.7%.

Take `O=c1[nH]c(/C=C/c2ccccc2[N+](=O)[O-])nc2ccccc12`: the displacement turned out to be 1.4%. Take `O=C(NC(=S)Nc1ccc(Cc2ccncc2)cc1)c1ccccc1`: the displacement was 9.1%.

`COc1ccccc1N1C(=O)CC(Nc2ccccc2)C1=O` (stereo not drawn): the displacement is -10.3%. As for `CCCN=C(C)C1=C(O)C(C(=O)OC)C(C)(C)CC1=O` (stereo not drawn), the figure is -14.8%; as for `CC(C)c1nccn1S(=O)(=O)c1ccc(Cl)cc1Cl`, 2.6%; as for `CC1=CC(C)(C)C(C#N)(C#N)C(N)=C1C#N`, 15%. On to `O=C(Nc1ccccc1)Nc1nnc(SCc2ccc(Cl)cc2Cl)s1`, for which the displacement was found to be 6.2%. With `COC(=O)C(=C/C=C/c1cccnc1)C(=O)OC`, the displacement is 1.7%. As for `Clc1ccc(OCCCCN2CCOCC2)cc1`, the displacement is -8%.

Take `Cc1ccc(C2C(C(=O)OC(C)C)C(=O)CC(C)(O)C2C(=O)OC(C)C)cc1` (stereo not drawn): the displacement is -6.8%. On to `COc1ccc(-c2cn3cc(Cl)ccc3n2)cc1Br`, for which the displacement was determined as 11.2%.

Take `COC(=O)CCC(C(=O)NC(=O)NC(c1ccccc1)c1ccccc1)N1C(=O)c2ccccc2C1=O` (stereo not drawn): the displacement came out at 0.8%. With `CC(C)COc1ccc(C(=O)Nc2nc(-c3ccccc3)cs2)cc1`, the displacement was -6.3%.

The record behind these values is PubChem BioAssay AID1240 (Sanford-Burnham Center for Chemical Genomics, 2008).
